# Results published in PubChem BioAssay AID2546 (National Center for Advancing Translational Sciences (NCATS), 2010).
# The campaign covered roughly 310,000 compounds. About 11,000 (3.5%) were called active. The inconclusive results got no clear call from the source; some entries with a clear call stand among them for comparison. The call rests on the fitted dose curve; in most records, active means well fitted inhibition curve with a large enough effect; inconclusive means small, poorly fitted or top-dose-only effect, or effect the other way; inactive means flat fitted curve, though single readings scatter. Potencies of inconclusive entries are left out as doubtful fits.
# Assay: VP16 counterscreen qHTS for inhibitors of ROR gamma transcriptional activity;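 further: Gal4-VP16 expression switched on by copper sulfate through the metallothionein promoter; nearly all actives have a fitted effect of over 50% in size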
# Conditions: Drosophila S2 Gal4-VP16 UAS-luciferase, luminescence, 20 h; activity, negative = inhibition: at 53.6 µM (top of the series)
# On the % scale 0 is the no-effect control and ±100 the full control effect; potency means the concentration at half of the fitted maximal effect; tags describe the fitted curve by direction and shape.
Structure (SMILES),Potency,"activity, negative = inhibition"
CC1(C)COCN1S(=O)(=O)c1ccc(C(=O)Nc2nnc(-c3ccc(Cl)s3)o2)cc1,active: 0.126 µM,–
Cn1c(=O)cc(SCC(=O)NCc2ccc(F)cc2)c2ccccc21,–,inactive: -5.79%
CCOC(=O)C1CCN(C(=O)CN2C(=O)C(C(C)C)Oc3ccccc32)CC1 (configuration not stated),–,inactive: 0.471%
CCN(CC)S(=O)(=O)c1cccc(-c2cn3cc(C)ccc3n2)c1,"inconclusive [inhibitor, partial curve, poor fit]",–
CC(C)(C)c1ccc(-c2noc(CCC(=O)N3CCOCC3)n2)cc1,"inconclusive [inhibitor, single point]",–
CC(C)N=C(NS(=O)(=O)c1ccccc1)C(Cl)(Cl)Cl,"inconclusive [inhibitor, partial curve, poor fit]",–
N=c1c(-c2nc3ccccc3[nH]2)cc(C(=O)c2cccs2)nn1-c1ccccc1,"inconclusive [inhibitor, full curve, poor fit]",–
CC(/C=C/c1cccc([N+](=O)[O-])c1)=N/NC(=O)c1cccnc1,active: 5.01 µM,–
O=C(Nc1nc2c(s1)CCCC2)c1ccc(Br)s1,"inconclusive [inhibitor, single point]",–
OCC(O)C(O)C(O)C(O)C1NCCS1 (configuration not stated),–,inactive: -12.9%
CCCCN(C)C(=O)c1cc2c(s1)-c1ccccc1S(=O)(=O)C2,–,inactive: 21.9%
CCOc1ccccc1C(=O)NN1C(=O)CCC1=O,"inconclusive [inhibitor, single point]",–
CCCCn1c(CN(C)Cc2ccccc2)nc2c1c(=O)n(C)c(=O)n2C,"inconclusive [inhibitor, single point]",–
CC1=C(C#N)C(=O)N(C2CCS(=O)(=O)C2)C(=O)/C1=C\c1ccco1 (configuration not stated),"inconclusive [inhibitor, partial curve]",–
CCCC(=O)N1CCN(c2ccc(NC(=O)c3ccc([N+](=O)[O-])o3)cc2)CC1,–,inactive: -12.3%
O=C(c1cccc(F)c1)N1CCC2(CC1)CN(C(c1ccccc1)c1ccccc1)C2,–,inactive: 3%
Cc1ccc(/C=C2/CNC/C(=C\c3ccc(C)cc3)C2=O)cc1,active: 7.08 µM,–
S=c1[nH]nc(C2CCCCC2)n1/N=C/c1ccccc1,"inconclusive [inhibitor, single point]",–
CC1(C)CC[C@]2(C)CC[C@@]3(C)C(=CCC4[C@@]5(C)CCC(O)C(C)(C)C5CC[C@@]43C)C2C1 (some centres not stated),–,inactive: -2.81%
C=C1SC(=Nc2ccccc2Cl)N(C(=O)c2sc3ccccc3c2Cl)C1(C)C,"inconclusive [activator, single point]",–
CC1Sc2ccc(S(=O)(=O)CCC(=O)N3CCN(c4cccc(Cl)c4)CC3)cc2NC1=O (configuration not stated),"inconclusive [inhibitor, single point]",–
CCCCCCCNC(=O)C1(CC2CC(c3ccc(Cl)cc3)=NO2)CCNCC1 (configuration not stated),"inconclusive [inhibitor, single point]",–
CCOC(=O)CSc1nc2c(sc3ccc([N+](=O)[O-])cc32)c(=O)n1Cc1ccco1,active: 5.62 µM,–
Cc1nn(Cc2c(F)c(F)c(F)c(F)c2F)c(C)c1NC(=O)c1ccc(COc2ccccc2Cl)cc1,–,inactive: -11.7%

Structure (SMILES),Potency,"activity, negative = inhibition"
CCOCC(=O)Nc1nc2ccc(OCC)cc2s1,"inconclusive [inhibitor, single point]",–
O=C(Nc1ncc(Cc2cccc(C(F)(F)F)c2)s1)c1ccc(-c2cccc([N+](=O)[O-])c2)o1,active: 4.47 µM,–
O=C(CSc1ccccn1)N1CCN(c2ccccc2)CC1,–,inactive: 1.55%
Cc1cc(N/N=C\c2ccc(Br)cc2)nc(-n2nc(C)cc2C)n1,active: 1.41 µM,–
Cc1cc2oc(=O)c(CC(=O)O)c(C)c2c2occ(C(C)(C)C)c12,–,inactive: -19%
CC(C)CCNC(=O)c1cc(-c2cccs2)nc2ccccc12,–,inactive: 4.63%
Cc1ccc2c(Cl)cc(Cl)c(OCC(=O)NC(C)(C)C)c2n1,"inconclusive [inhibitor, single point]",–
Nc1ccc2nn(-c3ccc(Cl)cc3)nc2c1,"inconclusive [activator, full curve]",–
Cc1cccc(C)c1NC(=S)NCCSc1ccc(Cl)cc1,"inconclusive [inhibitor, single point]",–
CC[C@H](C)[C@H](NC(=O)OCc1ccccc1)C(=O)Nc1ccc(NC(C)=O)cc1,–,inactive: -12.3%
COc1ccc(C(=O)CCN2CCc3cc(OC)c(OC)cc3C2)cc1,"inconclusive [inhibitor, single point]",–
O=C(NNC(=O)c1ccc(SCC2CCCO2)c([N+](=O)[O-])c1)c1ccc(Cl)c([N+](=O)[O-])c1 (configuration not stated),"inconclusive [inhibitor, single point]",–
CCOC(=O)c1cn2nc(Oc3ccc(C(=O)OC)cc3)ccc2n1,"inconclusive [inhibitor, full curve, poor fit]",–
O=C(Nc1nc2ccccc2[nH]1)c1cc2ccccc2o1,active: 7.94 µM,–
CC(C)n1c(=S)[nH]c2ccccc21,"inconclusive [inhibitor, single point]",–
CCOc1ccc(CNC(=O)C2CCN(c3nnc(C)c4c(C)n(-c5ccc(C)cc5)nc34)CC2)cc1,"inconclusive [inhibitor, single point]",–
Nc1cc(N2CCCC2)c(Cl)cc1[N+](=O)[O-],"inconclusive [inhibitor, partial curve]",–
Cc1ccc(-n2c(C)cc(/C=N/NC(=O)c3ccncc3)c2C)cc1C,"inconclusive [inhibitor, single point]",–
COc1ccc(C)cc1NC(=O)C(Sc1ccccc1)c1ccccc1 (configuration not stated),"inconclusive [inhibitor, single point]",–
Cc1cccc(NC(=S)NCCc2ccccn2)c1,"inconclusive [inhibitor, single point]",–
C=CCN(CC=C)C(=S)NC(=O)c1ccc(OC)cc1,active: 2.24 µM,–
O=C(CN1C(=O)c2ccccc2S1(=O)=O)c1ccc(F)c(F)c1,active: 11.2 µM,–
Cc1cc(C(=O)Nc2nc3ccc(S(C)(=O)=O)cc3s2)c(C)o1,"inconclusive [inhibitor, full curve]",–
CCc1cccc(CC)c1NC(=S)Nc1ccccc1,"inconclusive [inhibitor, single point]",–

Structure (SMILES),Potency,"activity, negative = inhibition"
CSc1nc2nc3c(cc2c(=O)n1-c1ccccc1C)COC(C)(C)C3,–,inactive: 1.01%
Cc1ccccc1NC(=O)C(c1ccccc1)C1CCCC1 (configuration not stated),"inconclusive [activator, single point]",–
COc1ccccc1OCCCN1C(=O)C(=O)c2cccc(C)c21,"inconclusive [inhibitor, single point]",–
Nc1c(C(=O)Nc2ccc(Br)cc2)sc2nc(-c3ccco3)ccc12,"inconclusive [inhibitor, single point]",–
CCOc1cc(/C=N/NC(=O)Cc2ccc(C(F)(F)F)cc2[N+](=O)[O-])c(Br)cc1OC,"inconclusive [inhibitor, single point]",–
COc1cccc(/C=N/NC(=O)CSCC(=O)Nc2ccccc2)c1O,active: 1.58 µM,–
CCCC[C@@H](CNC)NC[C@H](NCCCCC1CCCCC1)C(C)C,"inconclusive [inhibitor, single point]",–
COc1ccc(CCNC(=O)c2cc(-c3ccccn3)nc3c(Cl)cccc23)cc1OC,–,inactive: -12%
N#Cc1ccc(CSc2nnc(-c3c[nH]c4ccccc34)n2-c2ccccc2)cc1,"inconclusive [inhibitor, partial curve]",–
CC(/C=N/n1c(COc2ccccc2)n[nH]c1=S)=C\c1ccccc1,"inconclusive [inhibitor, partial curve]",–
CN(C)c1nc(N)c2ncc(=S)[nH]c2n1,–,inactive: -5.69%
COc1ccc(-n2nc3c(N4CCC(C(=O)NCC(C)c5ccccc5)CC4)nnc(C)c3c2C)cc1 (configuration not stated),active: 20 µM,–
Cc1ccc(NC(=O)COC(=O)c2cc(Cl)ccc2Cl)c(Br)c1,"inconclusive [inhibitor, single point]",–
O=c1cc(O)nc(SCc2ccccc2)[nH]1,"inconclusive [activator, partial curve]",–
Cc1cccc(C(=O)OCC(=O)NCCNC(=O)COC(=O)c2cccc(C)c2C)c1C,"inconclusive [inhibitor, single point]",–
Cc1cc(Cl)ccc1-n1c(-c2cccnc2)n[nH]c1=S,"inconclusive [inhibitor, single point]",–
COc1ccc(NC(=S)Nc2cccc(S(=O)(=O)N3CCCCC3)c2)cc1,"inconclusive [inhibitor, single point]",–
CC(=O)/C(=N\Nc1ccc(Cl)cc1Cl)Sc1cccc2cccnc12,active: 5.01 µM,–
CCOc1ccc(/C=C2\SC(=S)N(CCC(=O)O)C2=O)cc1,–,inactive: -3.02%
Cc1cccc2cc(C3CC(c4ccco4)=NN3C(=O)CCC(=O)O)c(Cl)nc12 (configuration not stated),"inconclusive [activator, single point]",–
CCOc1ccccc1NCc1cc(=O)oc2cc(C)c(O)cc12,"inconclusive [inhibitor, single point]",–
Cc1cc2[nH]ncc2cc1NC(N)=S,"inconclusive [inhibitor, single point]",–
CCN(CC)c1ccc(C(NC(C)=O)NC(C)=O)cc1,–,inactive: -2.93%
CCN1CCN(C(=S)Nc2cc(S(=O)(=O)N(CC)CC)ccc2C)CC1,–,inactive: -1.13%
